PubChem BioAssay AID938 (National Center for Advancing Translational Sciences (NCATS), 2007)
“And” between values parts separate entries of the source, which are not always exact repeats. Equal values may be shown once. Among all 73,000 compounds or so, about 1,800 (2.5%) were called active. This list was built around the results that the source calls inconclusive (neither active nor inactive); the mix of calls is not that of the screen. The call rests on the fitted dose curve; in most records, active means well fitted activation curve with a large enough effect; inconclusive means small, poorly fitted or top-dose-only effect; inactive means no such curve, though single readings can be large or run the other way. Potencies of inconclusive entries are left out as doubtful fits. Some compounds were tested as several samples or in several runs, with calls that do not always agree.

Assay: qHTS Assay for Agonists of the Thyroid Stimulating Hormone Receptor: Activators of Intracellular cAMP Concentrations in Parental HEK 293; further: nearly all actives have a fitted effect of over 55% in size; on activation: % of control where 0% means no effect
Conditions: parental HEK293 CNG cAMP sensor, membrane potential fluorescence; activation: at 57.1 µM (top of the series) unless noted
Summary of the method: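 Counterscreen for endogenous-receptor signalling: CNG-channel HEK 293 cells report cAMP rise by membrane depolarization. After 60 min dye equilibration with 100 uM RO 20-1724, compounds incubated 30 min before bottom-read fluorescence at 590 nm.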
Potency means the concentration at half of the fitted maximal effect; tags describe the fitted curve by direction and shape.

SMILES | Potency | activation
O=c1c2ccccc2nc(SCc2nnc(-c3ccccc3)o2)n1-c1ccc(F)cc1F | inconclusive [activator, partial curve] | 
Cc1cc(-n2nc(C)cc2C)nc(N)n1 | inconclusive [activator, single point] | 
COc1ccccc1N1CCN(CCCNc2cc(=O)n(C)c(=O)n2C)CC1 | inactive and active: 12.6 µM | 
COCCNC(=O)[C@H](C)/C=C/C(NC(=O)OCc1ccccc1)c1ccc(C(=O)OC)cc1 (stereo not given in full) | inactive | 
C=C(C)C1CCC(C)=C1CC(C)(C)/C=N\n1cnnc1 (stereo not given) | inconclusive [activator, partial curve] | 
CCc1c(C)sc(NC(=O)c2cc(C)no2)c1C#N | inactive | 
COc1ccc(CNc2cc(-c3ccccc3OC)ncn2)c(OC)c1 | inconclusive [activator, full curve, poor fit] | 
CCOC(=O)C(CC)Sc1nnc2n1C(C)(C)Cc1ccccc1-2 (stereo not given) | active: 20 µM | 
Brc1ccc2nc3c(n2c1)CCCC3 | inconclusive [activator, single point] | 
COC(=O)NC(/C(C(=O)OC)=C(\C)NCc1ccccc1)c1ccc2ccccc2c1 (stereo not given) | inconclusive [activator, partial curve] | 
CCOc1cccc(C(=O)Nc2ccc(N(CC)CC)cc2)c1 |  | inactive: -7.18% [at 11.4 µM]
Cc1ccc(C)c(OCC(=O)Nc2nonc2NC(=O)COc2cc(C)ccc2C)c1 | active: 25.1 µM | 
O=C(Nc1ccccc1)Nc1cccc2cccnc12 | inactive | 
COC(=O)c1cccc(CSc2nnc(-c3ccco3)n2-c2ccccc2)c1 | active: 20 µM | 
CC1Cc2ccccc2N1C(=O)CSc1nc(-c2ccco2)cc(C(F)(F)F)n1 (stereo not given) | inconclusive [activator, partial curve] | 
c1ccc(OCc2nc(-c3ccccc3)no2)cc1 | inactive | 
COc1ccc(CN2CCN(C(=O)c3ccco3)CC2)cc1OCc1ccccc1 | inconclusive [activator, partial curve] | 
COC(=O)CCP(=O)(O)Cc1ccccc1CP(=O)(O)CCC(=O)OC | inconclusive [activator, single point] | 
C=C(C)CSc1nnc([C@@H](NC(=O)OC(C)(C)C)C(C)CC)o1 (stereo not given in full) | inconclusive [activator, full curve] | 
CC(=O)N1CCC2(CCCN(c3cccc(-c4ccccc4)c3)C2)CC1 | inconclusive [activator, partial curve, poor fit] | 
